Among all 310,000 compounds or so, about 14,000 (4.5%) showed an effect of 50% or more. Effects have a minus sign here. The list shows a part of the results.
Molecular target: human ether-à-go-go-related gene (hERG) potassium channel (human, UniProt Q12809)
Assay: primary screen, population patch clamp on CHO cells stably expressing hERG
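Also: peak tail current of the secondary pulse compared with the same well before compound.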

Sequence of human ether-à-go-go-related gene (hERG) potassium channel (Q12809 whole entry, looked up): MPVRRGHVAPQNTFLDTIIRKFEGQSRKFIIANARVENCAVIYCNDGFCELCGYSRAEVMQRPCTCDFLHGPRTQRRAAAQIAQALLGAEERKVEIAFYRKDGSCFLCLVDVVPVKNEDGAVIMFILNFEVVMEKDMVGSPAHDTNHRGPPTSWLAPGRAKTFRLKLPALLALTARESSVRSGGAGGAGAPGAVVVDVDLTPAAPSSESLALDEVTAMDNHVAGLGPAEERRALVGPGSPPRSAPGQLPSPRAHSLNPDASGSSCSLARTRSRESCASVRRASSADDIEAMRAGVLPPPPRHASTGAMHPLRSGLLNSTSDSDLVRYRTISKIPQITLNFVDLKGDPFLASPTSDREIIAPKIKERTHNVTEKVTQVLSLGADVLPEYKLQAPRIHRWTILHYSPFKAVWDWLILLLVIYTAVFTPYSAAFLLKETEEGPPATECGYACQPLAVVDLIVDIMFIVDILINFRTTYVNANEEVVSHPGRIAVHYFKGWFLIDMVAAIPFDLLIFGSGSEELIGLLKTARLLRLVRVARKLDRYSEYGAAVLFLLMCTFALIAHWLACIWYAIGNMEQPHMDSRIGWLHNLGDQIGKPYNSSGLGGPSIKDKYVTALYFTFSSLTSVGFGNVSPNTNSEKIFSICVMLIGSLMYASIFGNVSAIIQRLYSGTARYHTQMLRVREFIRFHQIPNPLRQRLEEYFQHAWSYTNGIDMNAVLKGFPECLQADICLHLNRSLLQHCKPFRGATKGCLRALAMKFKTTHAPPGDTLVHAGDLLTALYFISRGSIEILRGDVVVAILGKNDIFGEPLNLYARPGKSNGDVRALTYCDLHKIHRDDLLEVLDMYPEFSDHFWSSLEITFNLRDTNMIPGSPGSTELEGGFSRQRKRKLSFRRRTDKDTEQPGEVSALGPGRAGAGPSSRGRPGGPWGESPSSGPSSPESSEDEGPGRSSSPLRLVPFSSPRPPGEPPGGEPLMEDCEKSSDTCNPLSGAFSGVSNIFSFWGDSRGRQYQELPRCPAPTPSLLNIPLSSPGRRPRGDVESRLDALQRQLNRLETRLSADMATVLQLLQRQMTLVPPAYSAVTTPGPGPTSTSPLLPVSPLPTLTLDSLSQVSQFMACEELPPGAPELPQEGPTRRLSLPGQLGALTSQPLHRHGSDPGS

Structure (SMILES)	hERG current change (%, negative = inhibition) at 10uM [%]
CCOc1ccccc1N1CCN(Cc2ccc(Br)s2)CC1	-33.8
O=C(O)C1C2CCC(O2)C1C(=O)Nc1ccc(F)c(F)c1 (stereo not drawn)	26.5
Cc1ccc(-n2nc3c(c2NC(=O)c2ccc(Br)o2)CSC3)c(C)c1	-23.4
CCOCCCn1c(=NC(=O)c2cccnc2)c(C(=O)OCC)cc2c(=O)n3ccccc3nc21	-70.1
CC(=O)Nc1ccc(Nc2cc(N3CCOCC3)c3nonc3c2[N+](=O)[O-])cc1	-4.33
O=C(CCCCCN1C(=O)c2cccc3cccc(c23)C1=O)NC1CCS(=O)(=O)C1 (stereo not drawn)	-7.35
NNC(=O)CSc1nc(-c2ccccc2)nc2c1CCCC2	-8.07
CCn1cc(C(=O)O)c(=O)c2cc3c(cc21)OCO3	20.5
Cc1cc(NS(=O)(=O)c2ccc(NS(=O)(=O)c3ccc(CC(C)C)cc3)cc2)nc(C)n1	28.8
O=C(NCCNC(=O)c1ccccc1[N+](=O)[O-])c1ccccc1[N+](=O)[O-]	24.7
O=C(/C=C/c1ccccc1)NC(=O)c1ccccc1O	9.95
CCOc1cc(C2NC(=O)NC(c3ccccc3)=C2C(=O)c2ccccc2)c(Br)cc1OCC(=O)O (stereo not drawn)	7.86
Cc1ccc(-n2nnnc2CSc2nnc(-c3ccc(O)cc3)o2)cc1	-15.4
CC(CN1CCN(C)CC1)OC(=O)c1ccc(F)cc1.Cl (stereo not drawn)	-6.99
CC(C)CCNC(=O)C(c1ccncc1)N(C(=O)Cn1nnc(-c2ccc(F)cc2)n1)c1ccccc1F (stereo not drawn)	-24.2
Cc1ccc(S(=O)(=O)/C(C#N)=C/c2c(N3CCN(Cc4ccccc4)CC3)nc3ccccn3c2=O)cc1	5.58
COc1cc(OC)c(C2Nc3ccccc3NC3=C2C(=O)CC(C)(C)C3)cc1OC (stereo not drawn)	8.16
Cc1ccccc1NC1=NS(=O)(=O)c2ccccc21	4.25
CN(C)n1cccc1/C=C(\C#N)S(=O)(=O)c1ccc(Cl)cc1	3.19
Cc1cccc(N(CC(=O)NC2CCCCC2)C(=O)Cn2nnc(-c3ccc(C)o3)n2)c1	1.96
Cn1c(SCC(=O)c2ccc3c(c2)OCCO3)nnc1C(F)(F)F	-18.6
Cn1c(CC2C(=O)Nc3ccc(Br)cc32)nc2ccccc2c1=O (stereo not drawn)	-12
Cl.c1ccc2c(c1)oc1c(NCCN3CCOCC3)ncnc12	-5.4
CCCCCC(=O)Nc1cccc(C2=NOC3(C2)C[C@H](C(N)=O)N(C(=O)c2ccccc2)C3)c1 (stereo partly drawn)	-6.55
CC(C)(C)c1ccc(CS(=O)(=O)CC(O)CN2CCCC2=O)cc1 (stereo not drawn)	22.3
COc1cc(/C(C)=N/N2CCN(Cc3ccc(C)cc3)CC2)ccc1O	-44.3
COc1ccc(NC(=O)c2cc(NC(=O)C3CCCCC3C(=O)O)ccc2N2CCOCC2)cc1 (stereo not drawn)	-40.5

Structure (SMILES)	hERG current change (%, negative = inhibition) at 10uM [%]
Cc1cccc(OCCSCc2nc3ccccc3[nH]2)c1	-8.03
Cl.NC1=NC2(CCCCC2)N(c2ccc(F)cc2)C(N)=N1	-0.741
CC(/C=C/c1ccco1)=N/NC(=O)OC(C)(C)C	3.46
CCc1nnc(NC(=O)CCC(=O)N2CCN(S(=O)(=O)c3cc(Cl)ccc3OC)CC2)s1	-8.96
FC(F)(F)c1nc(NCC2CCCO2)c2nnn(Cc3ccccc3Cl)c2n1 (stereo not drawn)	4.47
COc1ccccc1NC(=O)CCn1c(=O)c2cccn2c2ccccc21	-8.61
Cc1cc(C)nc(SCc2nnc(SCC(=O)Nc3c(C)cccc3C)o2)n1	4.72
Cc1ccc(C(=O)NC(=S)Nc2cccc3c(C)cc(C)nc23)cc1	6.48
O=C(CNC(=O)c1ccco1)Nc1ccc(F)c(Cl)c1	17.2
O=C(O)COCC(=O)N1CCCN(c2ccc(C(F)(F)F)cn2)CC1	14.3
CC(C)N(C(=O)CSc1nc2ccccc2n1Cc1ccc(F)cc1)C(C)C	-27.3
O=C(CSc1ccc(-c2cccnc2)nn1)N1CCCCCC1	23.2
Cc1cccc(NC(=O)CCc2c(C)nn(-c3ccc(N4CCCCC4)nn3)c2C)c1	-4.76
CCN1C(=O)c2cccc3c(S(=O)(=O)Nc4ccccc4O)ccc1c23	5.39
CS(=O)(=O)c1ccc(C(=O)Nc2ccc(-c3nc4ccccc4[nH]3)cc2)cc1	19.3
CC12CCC(C(=O)NNc3ccc([N+](=O)[O-])cc3)(OC1=O)C2(C)C (stereo not drawn)	-5.09
COCCc1nnc(NC(=O)C(C)C)s1	7.35
O=C(Nc1nc2ccccc2s1)Nc1ccc([N+](=O)[O-])cc1Cl	26.6
Cc1[nH]n(-c2nc(-c3ccc(Cl)cc3)cs2)c(=O)c1N=Nc1ccc(O)cc1	25.4
Cc1ccc2nc3c(c(C(=O)OC4CCOC4=O)c2c1)CCCC3 (stereo not drawn)	-0.191
Cc1ccccc1CNC(=O)CCn1nc(C)c2c(C)n(-c3ccccc3)nc2c1=O	3.45
COc1ccc(NC(=O)c2cccc(NC(=O)c3ccccc3)c2)c(OC)c1	13.7
CCOC(=O)C(CC)(CC)C(=O)/C=C/c1ccc(OC)cc1	-13.7
CCC(C)NS(=O)(=O)c1ccc(S(=O)(=O)Nc2cc3c(cc2C(C)=O)OCO3)cc1 (stereo not drawn)	11.2
CC(=O)Oc1c(C)c(C)c2c(c1C)CCC(C)(CCCC(C)CCCC(C)CCCC(C)C)O2 (stereo not drawn)	10.7
OC(CNCCc1ccc(C(F)(F)F)cc1)COc1ccc2ccccc2c1 (stereo not drawn)	-46.5
CC(C)=CC(=O)OCC(=O)Nc1cc(C)ccc1C	27.6

Source: paper PMC4336329 (PLoS ONE, 2015)
